The source of these data is the antibiotic and cytotoxicity screens of Wong et al. (2023).

This is one part of the list.

One test relates to HSkMC. The test can be described thus: cytotoxicity call (relative viability < 0.9). The conditions noted are these: 10 µM.
The test system of another test is HepG2. The test can be described thus: cytotoxicity call (relative viability < 0.9). The conditions noted are these: 10 µM.
The test system of another test is S. aureus RN4220. The test can be described thus: growth inhibition call (relative growth <= 0.2). The conditions noted are these: 50 µM.

Take `O=C(O)CC[C@H](NC(=O)CCn1nnc2ccccc2c1=O)C(=O)O`: the cytotoxicity call with HSkMC and in the test with HepG2 was “inactive” in each case. For the same compound, in the test on S. aureus RN4220, the growth inhibition call was “inactive”.

With `CC(=O)Nc1c(C)[nH]c2ncnn2c1=O`, the cytotoxicity call in the test with HSkMC was “inactive”. The cytotoxicity call in the test with HepG2 was “active”. Also, in the test on S. aureus RN4220, the growth inhibition call was “inactive”.

For the compound `C[C@@H]1CN([C@@H](C)CO)C(=O)CCCn2cc(nn2)CO[C@H]1CN(C)S(=O)(=O)c1ccc2c(c1)OCCCO2`, the cytotoxicity call with HSkMC and in the test on HepG2 was “inactive” in each case. Further, the growth inhibition call in the test with S. aureus RN4220 was “inactive”.

As for `C[C@H]1CN([C@@H](C)CO)C(=O)c2cc(NC(=O)CCN3CCOCC3)ccc2O[C@H]1CN(C)Cc1ccc2c(c1)OCO2`, the cytotoxicity call with HSkMC and in the test with HepG2 was “inactive” throughout. For the same compound, in the test on S. aureus RN4220, the growth inhibition call was “inactive”.

On to `C[C@@H]1CN([C@H](C)CO)C(=O)c2cc(NC(=O)Nc3ccc(F)cc3)ccc2O[C@@H](C)CCCCO[C@H]1CN(C)C(=O)c1ccccc1`, for which the cytotoxicity call with HSkMC and in the test with HepG2 was “inactive” each time. For the same compound, in the test on S. aureus RN4220, the growth inhibition call was “inactive”.

For `CC(=O)N1CCC2(CC1)NC(=O)NC2=O`, the cytotoxicity call in the test on HSkMC and with HepG2 was “inactive” in each case. The growth inhibition call in the test with S. aureus RN4220 was “inactive”.

As for `C[C@@H]1CCCCO[C@@H](CN(C)Cc2ccccc2)[C@@H](C)CN([C@@H](C)CO)C(=O)c2cc(NC(=O)CCC(F)(F)F)ccc2O1`, the cytotoxicity call in the test on HSkMC and with HepG2 was “inactive” each time. Moreover, in the test with S. aureus RN4220, the growth inhibition call was “inactive”.

Regarding `O=C(C[C@H]1C=C[C@@H](NC(=O)Cc2ccccn2)[C@H](CO)O1)NCCCN1CCOCC1`, the cytotoxicity call with HSkMC and in the test on HepG2 was “inactive” in each case. Besides, the growth inhibition call in the test with S. aureus RN4220 is “inactive”.

As for `C[C@H](CO)N1C[C@H](C)[C@H](CN(C)S(=O)(=O)c2cccs2)Oc2ccc(NS(=O)(=O)c3cn(C)cn3)cc2C1=O`, the cytotoxicity call with HSkMC and in the test with HepG2 was “inactive” throughout. Further, the growth inhibition call with S. aureus RN4220 was “inactive”.

On to `CCCCCCCCc1ccc(-c2ccc(C(=O)O)cc2)cc1`, for which the cytotoxicity call with HSkMC and in the test on HepG2 was “inactive” in each case. Besides, in the test on S. aureus RN4220, the growth inhibition call is “inactive”.

In the case of `CCCNC(=O)N1C[C@@H](C)[C@@H](OC)CN(C)C(=O)c2ccc(NS(=O)(=O)CC(F)(F)F)cc2OC[C@@H]1C`, the cytotoxicity call in the test with HSkMC and in the test with HepG2 was “inactive” in each case. In addition, the growth inhibition call in the test on S. aureus RN4220 was “inactive”.

Consider `Cc1ccc(S(=O)(=O)N(C)C[C@H]2Oc3ccc(NC(=O)Cn4cnnn4)cc3CC(=O)N([C@@H](C)CO)C[C@H]2C)cc1`, for which the cytotoxicity call in the test on HSkMC and in the test on HepG2 was “inactive” in each case. The growth inhibition call in the test with S. aureus RN4220 was “inactive”.

With `C[C@H](CO)N1C[C@H](C)[C@@H](CN(C)S(=O)(=O)c2ccccc2C#N)OCc2cnnn2CCCC1=O`, the cytotoxicity call with HSkMC and in the test with HepG2 was “inactive” throughout. The growth inhibition call with S. aureus RN4220 is “inactive”.

Regarding `O=C(c1ccncc1)N1C[C@@H]2[C@H](c3ccccc31)[C@H](CO)N2C(=O)CN1CCOCC1`, the cytotoxicity call with HSkMC and in the test with HepG2 was “inactive” throughout. For the same compound, the growth inhibition call with S. aureus RN4220 is “inactive”.

With `C[C@H](CO)N1C[C@H](C)[C@@H](CN(C)S(=O)(=O)c2cn(C)cn2)Oc2ccc(NS(=O)(=O)c3cccs3)cc2C1=O`, the cytotoxicity call with HSkMC and in the test on HepG2 was “inactive” throughout. Moreover, in the test on S. aureus RN4220, the growth inhibition call was “inactive”.

With `C[C@H]1CN([C@@H](C)CO)S(=O)(=O)c2ccc(-c3ccncc3)cc2O[C@H]1CN(C)S(=O)(=O)c1ccccc1F`, the cytotoxicity call in the test on HSkMC and with HepG2 was “inactive” throughout. In addition, the growth inhibition call in the test on S. aureus RN4220 was “inactive”.

For `NCCC1=CSC2=NCCN12`, the cytotoxicity call with HSkMC and in the test with HepG2 was “inactive” each time. Further, in the test on S. aureus RN4220, the growth inhibition call was “inactive”.

As to `C[C@H]1CN([C@@H](C)CO)C(=O)c2cccc(NC(=O)c3cnccn3)c2O[C@H]1CN(C)Cc1ccc(C(=O)O)cc1`, the cytotoxicity call in the test with HSkMC and in the test with HepG2 was “inactive” in each case. Besides, the growth inhibition call in the test on S. aureus RN4220 was “inactive”.

In the case of `CO[C@H]1CN(C)C(=O)c2cc(NS(=O)(=O)CC(F)(F)F)ccc2OC[C@H](C)N(Cc2ccccn2)C[C@H]1C`, the cytotoxicity call in the test on HSkMC and with HepG2 was “inactive” each time. For the same compound, the growth inhibition call in the test with S. aureus RN4220 is “inactive”.

`C[C@H]1CN([C@@H](C)CO)C(=O)c2c(c3ccccc3n2C)-c2ccccc2CO[C@@H]1CN(C)Cc1ccc(C(=O)O)cc1`: the cytotoxicity call with HSkMC and in the test with HepG2 was “inactive” each time. The growth inhibition call with S. aureus RN4220 is “inactive”.

On to `C[C@H]1CCCCO[C@H](CN(C)C(=O)Cc2ccccc2)[C@@H](C)CN([C@@H](C)CO)C(=O)c2cc(NS(=O)(=O)c3ccc(F)cc3)ccc2O1`, for which the cytotoxicity call with HSkMC and with HepG2 was “inactive” in each case. The growth inhibition call in the test with S. aureus RN4220 is “inactive”.

Consider `CC(C)NC(=O)Nc1ccc2c(c1)C(=O)N([C@H](C)CO)C[C@@H](C)[C@H](CN(C)C(=O)Nc1ccc(F)cc1)OCCCC[C@@H](C)O2`, for which the cytotoxicity call with HSkMC and in the test with HepG2 was “inactive” each time. The growth inhibition call with S. aureus RN4220 is “inactive”.

As for `Cn1nccc1C(=O)NCCN`, the cytotoxicity call in the test on HSkMC and in the test on HepG2 was “inactive” each time. Also, the growth inhibition call in the test on S. aureus RN4220 is “inactive”.

For `C[C@H]1CN([C@@H](C)CO)C(=O)c2cccc(NC(=O)c3ccc(-c4nccs4)cc3)c2O[C@@H]1CN(C)Cc1ccc(Oc2ccccc2)cc1`, the cytotoxicity call in the test on HSkMC and in the test on HepG2 was “inactive” in each case. Further, the growth inhibition call in the test on S. aureus RN4220 is “inactive”.

Turning to `C[C@@H]1CN([C@@H](C)CO)C(=O)c2cc(NS(=O)(=O)c3cn(C)cn3)ccc2O[C@@H](C)CCCCO[C@@H]1CN(C)Cc1ccc(C(F)(F)F)cc1`, the cytotoxicity call in the test with HSkMC and in the test on HepG2 was “inactive” each time. Besides, the growth inhibition call in the test with S. aureus RN4220 was “inactive”.

As to `Cc1ccccc1-c1ncc(-c2ccc(Br)cc2)o1`, the cytotoxicity call in the test with HSkMC and in the test on HepG2 was “inactive” in each case. In the test on S. aureus RN4220, the growth inhibition call was “inactive”.

Regarding `COCc1cn(CC[C@@H]2CC[C@@H](NC(=O)CCN3CCCCC3)[C@@H](CO)O2)nn1`, the cytotoxicity call in the test on HSkMC (human skeletal muscle cells) and in the test on HepG2 was “inactive” throughout. Moreover, the growth inhibition call with S. aureus RN4220 was “inactive”.

Turning to `C[C@@H]1CN([C@@H](C)CO)S(=O)(=O)c2ccc(Br)cc2O[C@H]1CN(C)C(=O)Cc1cccnc1`, the cytotoxicity call in the test with HSkMC and in the test with HepG2 was “inactive” each time. The growth inhibition call in the test on S. aureus RN4220 was “inactive”.
